# About 9,900 (2.8%) of roughly 350,000 compounds were called active. The shares of active, inactive and inconclusive entries below differ from those in the screen. The call rests on the fitted dose curve; in most records, active means well fitted activation curve with a large enough effect; inconclusive means small, poorly fitted or top-dose-only effect; inactive means no such curve, though single readings can be large or run the other way. Potencies of inconclusive entries are left out as doubtful fits.
# Assay: A quantitative high throughput screen for small molecules that induce DNA re-replication in MCF 10a normal breast cells. Further: nearly all actives have a fitted effect of over 50% in size.
# Settings: MCF 10A DNA re-replication, Hoechst nuclear intensity, 48 h; series mostly up to 46.1 µM
# Potency means the concentration at half of the fitted maximal effect; tags describe the fitted curve by direction and shape.
row,Compound,Potency
1,COc1ccc(CN2CCN(c3ccccn3)CC2)cc1OCc1ccccc1,"inconclusive [activator, single point]"
2,Cc1[nH]n(-c2ncc(-c3ccccc3)s2)c(=O)c1C(c1ccc(Br)cc1)C(C#N)C#N (centres undefined),"inconclusive [activator, single point]"
3,COc1ccc(-c2c(-c3ccccc3)c(C(=O)C(=O)NCCCN(C)C)n3ccc4cc(OC)c(OC)cc4c23)cc1OC,"inconclusive [activator, single point]"
4,CCC1(C)Nc2ccccc2C(=O)N1O (centres undefined),"inconclusive [activator, single point]"
5,Cc1c(CN2CCC(CO)(CCOc3ccccc3)CC2)[nH]c2ccc(Cl)cc12,"inconclusive [activator, single point]"
6,O=C(NP(=O)(N1CCOCC1)N1CCOCC1)C1=C(N2CCOCC2)/C(=C\c2ccccc2)CC1,active: 23.1 µM
7,COc1ccc(Cl)cc1NC(=O)c1noc(C)c1[N+](=O)[O-],"inconclusive [activator, single point]"
8,CCOc1c(O)ccc(/C=C2\SC(=S)NC2=O)c1[N+](=O)[O-],active: 25.9 µM
9,COc1ccc(NC(=O)c2cc([N+](=O)[O-])ccc2N2CCCCC2)cc1,"inconclusive [activator, single point]"
10,O=C(OCc1ccccc1)N1CCC2CC1c1cc(-c3ccccc3)ccc12 (centres undefined),"inconclusive [activator, partial curve, poor fit]"
11,CC(CCc1ccccc1)NC(=O)c1cccc(F)c1 (centres undefined),"inconclusive [activator, single point]"
12,N#C/C(=C\c1ccc(O)c([N+](=O)[O-])c1)c1nc2ccccc2s1,"inconclusive [activator, single point]"
13,CC1CCc2[nH]c3ccc(C(=O)NCCCOC(C)C)cc3c2C1 (centres undefined),"inconclusive [activator, full curve]"
14,Fc1ccc(-n2c(=S)[nH]c3cccnc32)cc1,inactive
15,CCOCCCNC(=O)c1cc2c(=O)n3cccc(C)c3nc2n1C,"inconclusive [activator, full curve, poor fit]"
16,O=C(CSc1nc(-c2ccco2)cc(C(F)(F)F)n1)N1CCN(c2ccc(Cl)cc2)CC1,"inconclusive [activator, partial curve, poor fit]"
17,O=C(/C=C/c1ccc(F)cc1)c1ccc(N2CCOCC2)cc1,"inconclusive [activator, single point]"
18,O=C(CSc1nc2c(c(=O)n1-c1ccccc1)SCC2)N1CCOCC1,inactive
19,Nc1c(Cl)cc(C2=NCCn3nc4ccccc4c32)cc1Cl,inactive
20,CN(C)c1cccc2c(C=C(C#N)C#N)ccc(N(C)C)c12,"inconclusive [activator, single point]"
21,c1ccc(CNc2nc3ccccc3n2CCN2CCOCC2)nc1,active: 23.1 µM
22,C=C(C)C(=O)N1CC2(CC(c3cccc(NC(=O)CCCCC)c3)=NO2)C[C@H]1C(N)=O (some centres undefined),"inconclusive [activator, full curve, poor fit]"
23,CCc1ccc(OCCCC(=O)Nc2nccs2)cc1,"inconclusive [activator, single point]"

row,Compound,Potency
1,CCOC(=O)CCc1nc2ccccc2[nH]c1=O,inactive
2,CN1C(=O)CC(N2CCN(CC(N)=O)CC2)C1=O (centres undefined),inactive
3,CCC1(CC)Cc2ccccc2C(=O)N1,"inconclusive [activator, partial curve, poor fit]"
4,Cc1ccc(S[C@@H](CCN2CC[C@H](O)CCC2=O)c2ccccc2)cc1,"inconclusive [activator, full curve, poor fit]"
5,COc1ccccc1CCN1CCCC(CN(C)C(=O)CCC(=O)N(C)C)C1 (centres undefined),inactive
6,CN(C)S(=O)(=O)c1cccc(NC(=O)CCNC(=O)Nc2ccccc2)c1,inactive
7,Cc1ccc(CNC(=O)COC(=O)c2nc(-c3ccccc3)oc2C)cc1,"inconclusive [activator, single point]"
8,O=C(Cc1ccccc1)NC(=S)Nc1cccc(C(F)(F)F)c1,"inconclusive [activator, partial curve, poor fit]"
9,O=C(/C=C/NNC(=O)c1cccc(Br)c1)c1ccccc1,"inconclusive [activator, single point]"
10,CC(C)Oc1ccc(C(=O)CCN2CCCCC2)cc1,active: 23.1 µM
11,COc1cccc(C(=O)Oc2ccc(/C=N/NC(=O)c3ccncc3)cc2OC)c1,"inconclusive [activator, single point]"
12,Cc1cc(C)c(C(=O)NC2CC(C)(C)Cc3c2cnn3-c2ccccc2)o1 (centres undefined),inactive
13,COC(=O)C1=C(C)N(C)C(=O)NC1c1ccc([N+](=O)[O-])o1 (centres undefined),"inconclusive [activator, single point]"
14,CCN(c1ccccc1)S(=O)(=O)c1cc(NC(=O)Nc2ccccc2C#N)ccc1Cl,inactive
15,CCCC(C)NC(=O)CN1C(=O)c2cccc3cccc1c23 (centres undefined),"inconclusive [activator, single point]"
16,CCc1nn(-c2cc(Cl)ccc2OC)c2c1C(=O)CCC2,"inconclusive [activator, partial curve]"
17,Cc1cnc(NC(=O)c2ccc3c(c2)C(=O)N(Cc2ccco2)C3=O)s1,"inconclusive [activator, partial curve, poor fit]"
18,N#Cc1cc2cc3c(cc2nc1N1CCCCC1)OCCO3,"inconclusive [activator, partial curve, poor fit]"
19,COC(=O)Nc1ccc(S(=O)(=O)Nc2ccc(C(=O)O)cc2)cc1,inactive
20,CN(C)C=Nc1c(C(=O)c2ccccc2)sc2nccc(N(C)C)c12,inactive
21,O=C(C1CCN(Cc2ccccc2O)CC1)N1CCN(Cc2ccc3c(c2)OCO3)CC1,inactive
22,Cc1ccc(C(C[N+](=O)[O-])c2c(C)cc3ccccn23)cc1 (centres undefined),active: 20.6 µM
23,Cc1cc(C(=O)COc2ccccc2Cl)c(C)n1C1CC1,inactive

row,Compound,Potency
1,O=C(CSc1nnnn1-c1cccc(F)c1)Nc1nc2ccccc2s1,"inconclusive [activator, partial curve, poor fit]"
2,COc1ccccc1/C=C/C=C1\Oc2c(ccc(O)c2CN(C)C)C1=O,"inconclusive [activator, single point]"
3,CC(OC(=O)C1CCCC1)C(=O)Nc1ncc(Cl)cc1Cl (centres undefined),"inconclusive [activator, partial curve, poor fit]"
4,COc1cccc(C(=O)/C=C/Nc2ccc(S(=O)(=O)Nc3cc(OC)nc(OC)n3)cc2)c1,"inconclusive [activator, single point]"
5,CCOC(=O)N/N=C/c1cn(CCCOc2ccc(C)cc2)c2ccccc12,inactive
6,CC(Sc1nnc(Cc2cccs2)n1C)C(=O)Nc1ccc(C(N)=O)cc1 (centres undefined),inactive
7,CCCCc1ccc(NC(=O)c2c(C)noc2C)cc1,"inconclusive [activator, single point]"
8,O=C(NCc1cccs1)c1cccnc1SCCS(=O)(=O)c1ccc(C(F)(F)F)cn1,"inconclusive [activator, single point]"
9,Cc1nc(N=C(N)N)nc2c(C)cccc12,"inconclusive [activator, partial curve, poor fit]"
10,CCOC(=O)Cc1c(C)c2c(C)nn(-c3ccccc3)c2oc1=O,"inconclusive [activator, partial curve, poor fit]"
11,O=C(c1cc2n(n1)C(C(F)(F)F)CC(c1ccco1)N2)N1CCc2ccccc2C1 (centres undefined),"inconclusive [activator, partial curve, poor fit]"
12,CCOC(=O)c1c(C)[nH]c(C(=O)COC(=O)C(C)N2C(=O)C3CCCCC3C2=O)c1C (centres undefined),"inconclusive [activator, single point]"
13,CCOC(CCn1c(SCc2cccc([N+](=O)[O-])c2)nc2ccccc2c1=O)OCC,inactive
14,O=C1NC(=Nc2ccc(O)cc2)S/C1=C/c1ccco1,active: 4.61 µM
15,COc1ccccc1CN(C)CC(=O)Nc1ccc(Cl)cc1C(F)(F)F,"inconclusive [activator, single point]"
16,O=C(COC(=O)/C=C/c1cccc(Br)c1)NC1CCCCCC1,"inconclusive [activator, single point]"
17,Cc1cc2oc(=O)cc(CN3CCN(S(=O)(=O)c4ccc5c(c4)OCCO5)CC3)c2cc1C,inactive
18,COc1ccc(OC)c2sc(N(CCN(C)C)C(=O)c3cc(Cl)sc3Cl)nc12,"inconclusive [activator, partial curve, poor fit]"
19,CCCOc1ccc2c(c1)C(=NN=C(N)N)c1cc(OCCC)ccc1-2,"inconclusive [activator, single point]"
20,COc1cc(OC)c(OC)cc1/C=C/c1cc(C(F)(F)F)[nH]c(=O)n1,active: 23.1 µM
21,Cc1ccccc1NC(=O)Cc1nc(COC(=O)c2cccc([N+](=O)[O-])c2)cs1,inactive
22,CCc1ccc(NC(=O)C(C)OC(=O)c2ccc(NS(=O)(=O)c3ccc(C)c([N+](=O)[O-])c3)cc2)cc1 (centres undefined),"inconclusive [activator, partial curve, poor fit]"
23,Cc1cnc(NC(=O)c2ccccn2)s1,"inconclusive [activator, single point]"

# Reference: PubChem BioAssay AID624296 (National Center for Advancing Translational Sciences (NCATS), 2012)
